Our source for the ALDHbr values is the supplement of paper PMC11880418.

Where a name gives a salt, the structure may show the parent alone. The list shows a part of the results. The data scatter; read single values as rough.
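Note: High-content imaging of ALDEFLUOR-stained cells with Hoechst-labelled nuclei in 384-well plates, triplicate wells, scored as Z-score against 0.1% DMSO vehicle, negative meaning fewer ALDHbr cells.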

The test system of one assay is PANC1. As to the kind of experiment: ALDHbr (CSC) cell proportion score relative to DMSO vehicle (ratio to DMSO); breast (SUM159) / gastric (MKN45) / pancreatic (PANC1) / colon cancer lines; ALDHbr cells have high ALDH activity and are rich in cancer stem cells (CSC); higher = more CSC (ALDHbr) cells remaining. To be noted: 10 µM; 72 h.
As for `Cc1cccc(CN2CCN(C(c3ccccc3)c3ccc(Cl)cc3)CC2)c1` (stereo not drawn) [Meclozine dihydrochloride], the ALDHbr was 0.985.

As for `CCN1CCCC(OC(=O)C(c2ccccc2)c2ccccc2)C1` (stereo not drawn) [Piperidolate hydrochloride], the ALDHbr was determined as 0.985.

`CC[C@H]1OC(=O)[C@H](C)[C@@H](O[C@H]2C[C@@](C)(OC)[C@@H](O)[C@H](C)O2)[C@H](C)[C@@H](O[C@@H]2O[C@H](C)C[C@H](N(C)C)[C@H]2O)[C@](C)(O)C[C@@H](C)/C(=N\OCOCCOC)[C@H](C)[C@@H](O)[C@]1(C)O` [Roxithromycin]: the ALDHbr came to 0.976. The same measure, in the same setting: the value for `Cc1cccc(C)c1OCC(C)N` (stereo not drawn) [Mexiletine hydrochloride] was 0.701; that for `NC(=O)N1c2ccccc2CC(=O)c2ccccc21` [Oxcarbazepine] was 0.993; that for `NC(CO)C(=O)NNCc1ccc(O)c(O)c1O` (stereo not drawn) [Benserazide hydrochloride] was 0.869.

As to `CCCN1CCCC[C@H]1C(=O)Nc1c(C)cccc1C` [Ropivacaine hydrochloride], the ALDHbr came to 0.936. The same measure, in the same setting: the value for `COCC(=O)Nc1c(I)c(C(=O)NCC(O)CO)c(I)c(C(=O)N(C)CC(O)CO)c1I` (stereo not drawn) [Iopromide] was 1.02. On the same count and under the same terms, the value for `CN(CCOc1ccc(CC2SC(=O)NC2=O)cc1)c1ccccn1` (stereo not drawn) [Rosiglitazone Hydrochloride] was 0.848; that for `CCCCNC(=O)NS(=O)(=O)c1ccc(C)cc1` [Tolbutamide] was 0.881. As to `CCc1cc(C(N)=S)ccn1` [Ethionamide], the ALDHbr stood at 1.01. With `CC(C)NCC(O)COc1ccc(CCOCC2CC2)cc1` (stereo not drawn) [Betaxolol hydrochloride], the ALDHbr came out at 0.893. Still for that read-out and setting: the value for `COc1ccc2cc([C@H](C)C(=O)O)ccc2c1` [Naproxen] was 0.946.

A further assay relates to SUM159. The description is as above. Conditions: 10 µM; 72 h.
On to `CN(N=O)C(=O)N[C@H]1C(O)O[C@H](CO)[C@@H](O)[C@@H]1O` (mixture of isomers) [Streptozotocin], for which the ALDHbr is 1.06. `CC[N+](CC)(CC)CCOc1cccc(OCC[N+](CC)(CC)CC)c1OCC[N+](CC)(CC)CC` [Gallamine triethiodide]: the ALDHbr was found to be 1.14. Same read-out and setting: the value for `CN(C)CCOC(c1ccc(Cl)cc1)c1ccccn1` (stereo not drawn) [Carbinoxamine maleate salt] was 1.17. The same measure, in the same setting: the value for `O=C(O)[C@H]1/C(=C/CO)O[C@@H]2CC(=O)N21` [Clavulanate potassium salt] was 0.897; that for `O=S(=O)(O)CCS` [Mesna] was 0.975. On the same count and under the same terms, the value for `CCOc1ccc(NC(C)=O)cc1` [Phenacetin] was 0.932; that for `NS(=O)(=O)c1cc2c(cc1C(F)(F)F)NC(Cc1ccccc1)NS2(=O)=O` (stereo not drawn) [Bendroflumethiazide] was 1.08; that for `COc1cc(C)c(/C=C/C(C)=C/C=C/C(C)=C/C(=O)O)c(C)c1C` [Acitretin] was 0.0487.

Turning to `CC#C[C@]1(O)CC[C@H]2[C@@H]3CCC4=CC(=O)CCC4=C3[C@@H](c3ccc(N(C)C)cc3)C[C@@]21C` [Mifepristone], the ALDHbr turned out to be 0.213. Take `COc1cc(-c2ccc(=O)[nH]n2)ccc1OC(F)F` [Zardaverine]: the ALDHbr was 1.25.

Regarding `Nc1nc2[nH]cc(CCc3ccc(C(=O)N[C@@H](CCC(=O)O)C(=O)O)cc3)c2c(=O)[nH]1` [Pemetrexed disodium], the ALDHbr stood at 0.954.

For `O=C(O)c1ccccc1OP(=O)(O)O` [Fosfosal], the ALDHbr was found to be 1.01. On to `CCc1nn(CCCN2CCN(c3cccc(Cl)c3)CC2)c(=O)n1CCOc1ccccc1` [Nefazodone hydrochloride], for which the ALDHbr was found to be 1.29.

Consider `COc1cc(NC(C)CCCN)c2ncccc2c1` (stereo not drawn) [Primaquine diphosphate], for which the ALDHbr is 1.3. On the same count and under the same terms, the value for `Cn1cnc2c1c(=O)[nH]c(=O)n2C` [Theobromine] was 1.

Take `CC(=O)OCC(=O)[C@@]1(O)CC[C@H]2[C@@H]3CCC4=CC(=O)C=C[C@]4(C)[C@@]3(F)[C@@H](O)C[C@@]21C` [Isoflupredone acetate]: the ALDHbr was found to be 1.09. Regarding `CC(=O)CCCCn1c(=O)c2c(ncn2C)n(C)c1=O` [Pentoxifylline], the ALDHbr turned out to be 1.23. Same read-out and setting: the value for `O=C1c2cccc3c2[C@H](CCC3)CN1[C@@H]1CN2CCC1CC2` [Palonosetron hydrochloride] was 1.21; that for `CC(C)(C)NCC(O)COc1cccc2c1CCC(=O)N2` (stereo not drawn) [Carteolol hydrochloride] was 1.83; that for `CCCc1nc2c(C)cc(-c3nc4ccccc4n3C)cc2n1Cc1ccc(-c2ccccc2C(=O)O)cc1` [Telmisartan] was 0.806. Regarding `N[C@@H](Cc1ccc(O)c(O)c1)C(=O)O` [Levodopa], the ALDHbr amounted to 0.986.

With `CC(=O)N(CC(C)C(=O)O)c1c(I)cc(I)c(N)c1I` (stereo not drawn) [Iocetamic acid], the ALDHbr was 0.784. Still for that read-out and setting: the value for `CCOc1cc(CC(=O)N[C@@H](CC(C)C)c2ccccc2N2CCCCC2)ccc1C(=O)O` [Repaglinide] was 1.26.

`CCCc1ncc(C[n+]2ccccc2C)c(N)n1` [Amprolium hydrochloride]: the ALDHbr was 0.961.

On to `CN1CCC(OC(c2ccccc2)c2ccccc2)CC1` [Diphenylpyraline hydrochloride], for which the ALDHbr was 1.04.

In the case of `Cn1c(=O)c2c(ncn2CCO)n(C)c1=O` [Etofylline], the ALDHbr is 0.895. Take `C#C[C@]1(O)CC[C@H]2[C@@H]3CCc4cc(OC)ccc4[C@H]3CC[C@@]21C` [Ethynylestradiol 3-methyl ether]: the ALDHbr was 1.18. In the case of `Cc1cccc(CN2CCN(C(c3ccccc3)c3ccc(Cl)cc3)CC2)c1` (stereo not drawn) [Meclozine dihydrochloride], the ALDHbr came out at 0.728. Same read-out and setting: the result for `CCN1CCCC(OC(=O)C(c2ccccc2)c2ccccc2)C1` (stereo not drawn) [Piperidolate hydrochloride] reads 0.843; that for `CC[C@H]1OC(=O)[C@H](C)[C@@H](O[C@H]2C[C@@](C)(OC)[C@@H](O)[C@H](C)O2)[C@H](C)[C@@H](O[C@@H]2O[C@H](C)C[C@H](N(C)C)[C@H]2O)[C@](C)(O)C[C@@H](C)/C(=N\OCOCCOC)[C@H](C)[C@@H](O)[C@]1(C)O` [Roxithromycin], 0.994. On the same count and under the same terms, the value for `Cc1cccc(C)c1OCC(C)N` (stereo not drawn) [Mexiletine hydrochloride] was 1.12; that for `NC(=O)N1c2ccccc2CC(=O)c2ccccc21` [Oxcarbazepine] was 0.975; that for `NC(CO)C(=O)NNCc1ccc(O)c(O)c1O` (stereo not drawn) [Benserazide hydrochloride] was 1.08. On to `CCCN1CCCC[C@H]1C(=O)Nc1c(C)cccc1C` [Ropivacaine hydrochloride], for which the ALDHbr turned out to be 0.787. For `COCC(=O)Nc1c(I)c(C(=O)NCC(O)CO)c(I)c(C(=O)N(C)CC(O)CO)c1I` (stereo not drawn) [Iopromide], the ALDHbr was 1.16.

On to `CN(CCOc1ccc(CC2SC(=O)NC2=O)cc1)c1ccccn1` (stereo not drawn) [Rosiglitazone Hydrochloride], for which the ALDHbr came to 0.584.

On to `CCCCNC(=O)NS(=O)(=O)c1ccc(C)cc1` [Tolbutamide], for which the ALDHbr was determined as 0.918. Still for that read-out and setting: the result for `CCc1cc(C(N)=S)ccn1` [Ethionamide] reads 1.29. The same measure, in the same setting: the value for `CC(C)NCC(O)COc1ccc(CCOCC2CC2)cc1` (stereo not drawn) [Betaxolol hydrochloride] was 0.864; that for `COc1ccc2cc([C@H](C)C(=O)O)ccc2c1` [Naproxen] was 1.01.
